Measured values published in the supplement of paper PMC4604168 (melanoma cell lines).
The other results are listed elsewhere or left out. Repeats are few or missing, and single values can be far off.

Legend:
Assay in all cases: cell count relative to DMSO control; melanoma cells; higher = more viable cells
Conditions in all cases: library dose: low library concentration; 72 h
WM115 = system: WM115
WM1716 = system: WM1716
WM1745 = system: WM1745
WM3526 = system: WM3526
WM3619 = system: WM3619
WM451Lu = system: WM451Lu
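Note: cell number obtained by counting DAPI-stained nuclei in high-throughput microscope images with image analysis software, screen run in 1,536-well plates.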

SMILES | cell count (WM115) [%] | cell count (WM1716) [%] | cell count (WM1745) [%] | cell count (WM3526) [%] | cell count (WM3619) [%] | cell count (WM451Lu) [%]
CN(c1ncccc1CNc1nc(Nc2ccc3c(c2)CC(=O)N3)ncc1C(F)(F)F)S(C)(=O)=O + CS(=O)(=O)CCNCc1ccc(-c2ccc3ncnc(Nc4ccc(OCc5cccc(F)c5)c(Cl)c4)c3c2)o1 [lapatinib] (first compound 0.08 µM, partner dose 0.8 µM) | 76.8 | 85.9 | 67.8 | 109 | 108 | 71.9
NC1(c2ccc(-c3nc4ccn5c(=O)[nH]nc5c4cc3-c3ccccc3)cc2)CCC1 + O=C(O)c1ccc(-c2c[nH]c3ncc(-c4ccccc4)cc23)cc1C1CCCC1 [GSK650394] (first compound 0.4 µM, partner dose 0.16 µM) | 84.8 | 95.9 | 91.2 | 70.5 | 103 | 98.2
NC1(c2ccc(-c3nc4ccn5c(=O)[nH]nc5c4cc3-c3ccccc3)cc2)CCC1 + CCc1ccc(CCOc2ccc(CC3SC(=O)NC3=O)cc2)nc1 [pioglitazone] (first compound 0.4 µM, partner dose 2 µM) | 68.2 | 93.6 | 96.3 | 56.4 | 103 | 94.2
CS(=O)(=O)c1ccc(C(=O)Nc2ccc(Cl)c(-c3ccccn3)c2)c(Cl)c1 [vismodegib] + COCC[n+]1c2c(n(Cc3cnccn3)c1C)C(=O)c1ccccc1C2=O [YM155] (first compound 1 µM, partner dose 0.0004 µM) | 89.7 | 82.7 | 97.3 | 87.2 | 86.4 | 79.7
NC1(c2ccc(-c3nc4ccn5c(=O)[nH]nc5c4cc3-c3ccccc3)cc2)CCC1 + C=C(c1ccc(C(=O)O)cc1)c1cc2c(cc1C)C(C)(C)CCC2(C)C [Bexarotene] (first compound 0.4 µM, partner dose 2 µM) | 76.4 | 74.4 | 91.9 | 66.3 | 98.6 | 76.5
CN(c1ncccc1CNc1nc(Nc2ccc3c(c2)CC(=O)N3)ncc1C(F)(F)F)S(C)(=O)=O + Cn1nnc2c(C(N)=O)ncn2c1=O [temozolomide] (first compound 0.08 µM, partner dose 2 µM) | 77.2 | 70.1 | 86.3 | 88.2 | 85.6 | 76.1
CN(c1ncccc1CNc1nc(Nc2ccc3c(c2)CC(=O)N3)ncc1C(F)(F)F)S(C)(=O)=O + OCc1c[nH]c2ccccc12 [Indole-3-carbinol] (first compound 0.08 µM, partner dose 0.8 µM) | 74.6 | 78.4 | 82 | 77.5 | 75.4 | 56.2
NC1(c2ccc(-c3nc4ccn5c(=O)[nH]nc5c4cc3-c3ccccc3)cc2)CCC1 + O=S(=O)(c1ccccc1)N(CC(F)(F)F)c1ccc(C(O)(C(F)(F)F)C(F)(F)F)cc1 [T0901317] (first compound 0.4 µM, partner dose 1.4 µM) | 88.1 | 83.1 | 88.9 | 69 | 87 | 113
NC1(c2ccc(-c3nc4ccn5c(=O)[nH]nc5c4cc3-c3ccccc3)cc2)CCC1 + NCC(=O)Nc1ccc(-n2nc(C(F)(F)F)cc2-c2ccc3c(ccc4ccccc43)c2)cc1 [OSU03012] (first compound 0.4 µM, partner dose 1 µM) | 86.4 | 131 | 88.6 | 58.6 | 106 | 56.2
CS(=O)(=O)c1ccc(C(=O)Nc2ccc(Cl)c(-c3ccccn3)c2)c(Cl)c1 [vismodegib] + OCc1c[nH]c2ccccc12 [Indole-3-carbinol] (first compound 1 µM, partner dose 0.8 µM) | 96.9 | 94.7 | 102 | 105 | 83.6 | 106
NC1(c2ccc(-c3nc4ccn5c(=O)[nH]nc5c4cc3-c3ccccc3)cc2)CCC1 + COc1cc(Nc2ncc(F)c(Nc3ccc4c(n3)NC(=O)C(C)(C)O4)n2)cc(OC)c1OC [Tamatinib] (first compound 0.4 µM, partner dose 0.4 µM) | 57.8 | 95.9 | 69.1 | 53.2 | 83 | 115
NC1(c2ccc(-c3nc4ccn5c(=O)[nH]nc5c4cc3-c3ccccc3)cc2)CCC1 + O=C(O)c1ccc2c(c1)nc(Nc1cccc(Cl)c1)c1ccncc12 [CX4945] (first compound 0.4 µM, partner dose 0.4 µM) | 72.5 | 98.4 | 92.5 | 57.8 | 80.3 | 103
NC1(c2ccc(-c3nc4ccn5c(=O)[nH]nc5c4cc3-c3ccccc3)cc2)CCC1 + Nc1nc(F)nc2c1ncn2[C@@H]1O[C@H](CO)[C@@H](O)[C@@H]1O [fludarabine] (first compound 0.4 µM, partner dose 0.2 µM) | 58.8 | 95.9 | 106 | 28.6 | 106 | 44
CS(=O)(=O)c1ccc(C(=O)Nc2ccc(Cl)c(-c3ccccn3)c2)c(Cl)c1 [vismodegib] + CC1(C)NC(=O)N(c2ccc([N+](=O)[O-])c(C(F)(F)F)c2)C1=O [nilutamide] (first compound 1 µM, partner dose 1 µM) | 100 | 101 | 87.2 | 114 | 106 | 105
C=C(c1ccc(C(=O)O)cc1)c1cc2c(cc1C)C(C)(C)CCC2(C)C [Bexarotene] + COc1ccc(-c2ccc3c(N4CCOCC4)nc(N4C[C@@H](C)O[C@@H](C)C4)nc3n2)cc1CO [KU0063794] (first compound 2 µM, partner dose 0.02 µM) | 95.8 | 86.5 | 82.9 | 93.3 | 91 | 90.1
CN(c1ncccc1CNc1nc(Nc2ccc3c(c2)CC(=O)N3)ncc1C(F)(F)F)S(C)(=O)=O + Cn1cncc1[C@@](N)(c1ccc(Cl)cc1)c1ccc2c(c1)c(-c1cccc(Cl)c1)cc(=O)n2C [tipifarnib] (first compound 0.08 µM, partner dose 0.01 µM) | 75 | 79.2 | 87 | 86.6 | 88.7 | 60.7
NC1(c2ccc(-c3nc4ccn5c(=O)[nH]nc5c4cc3-c3ccccc3)cc2)CCC1 + CC(C)(C)c1cnc(CSc2cnc(NC(=O)C3CCNCC3)s2)o1 [SNS-032] (first compound 0.4 µM, partner dose 0.01 µM) | 75.5 | 103 | 88.8 | 75.4 | 95.3 | 101
CCCS(=O)(=O)Nc1ccc(F)c(C(=O)c2c[nH]c3ncc(Cl)cc23)c1F + CCc1ccc(CCOc2ccc(CC3SC(=O)NC3=O)cc2)nc1 [pioglitazone] (first compound 0.08 µM, partner dose 2 µM) | 101 | 128 | 94.6 | 58.8 | 60.5 | 103
C=C(c1ccc(C(=O)O)cc1)c1cc2c(cc1C)C(C)(C)CCC2(C)C [Bexarotene] + Cn1c(Nc2ccc(C(F)(F)F)cc2)nc2cc(Oc3ccnc(-c4ncc(C(F)(F)F)[nH]4)c3)ccc21 [CHIR265] (first compound 2 µM, partner dose 0.08 µM) | 82.9 | 78.3 | 79.4 | 82.8 | 84.3 | 102
CS(=O)(=O)c1ccc(C(=O)Nc2ccc(Cl)c(-c3ccccn3)c2)c(Cl)c1 [vismodegib] + C[C@@H]1CCN(C(=O)CC#N)C[C@@H]1N(C)c1ncnc2[nH]ccc12 [CP690550] (first compound 1 µM, partner dose 1 µM) | 94.9 | 106 | 94.8 | 91.3 | 90.4 | 81.8
CCCS(=O)(=O)Nc1ccc(F)c(C(=O)c2c[nH]c3ncc(Cl)cc23)c1F + Oc1cc(-c2nc(-c3ccccc3)[nH]c2-c2ccncc2)ccc1Cl [L779450] (first compound 0.08 µM, partner dose 0.2 µM) | 71 | 96.2 | 86.7 | 55.1 | 77.1 | 93.3
CN(c1ncccc1CNc1nc(Nc2ccc3c(c2)CC(=O)N3)ncc1C(F)(F)F)S(C)(=O)=O + CO[C@H]1C[C@@H]2CC[C@@H](C)[C@@](O)(O2)C(=O)C(=O)N2CCCC[C@H]2C(=O)O[C@H]([C@H](C)C[C@@H]2CC[C@@H](OCCO)[C@H](OC)C2)CC(=O)[C@H](C)/C=C(\C)[C@@H](O)[C@@H](OC)C(=O)[C@H](C)C[C@H](C)/C=C/C=C/C=C/1C [everolimus] (first compound 0.08 µM, partner dose 0.02 µM) | 84.2 | 73.6 | 83.7 | 51.3 | 63.3 | 72.1
CN(c1ncccc1CNc1nc(Nc2ccc3c(c2)CC(=O)N3)ncc1C(F)(F)F)S(C)(=O)=O + CCc1ccc(CCOc2ccc(CC3SC(=O)NC3=O)cc2)nc1 [pioglitazone] (first compound 0.08 µM, partner dose 2 µM) | 83.7 | 75.5 | 76.6 | 97.9 | 130 | 95.6
CN(c1ncccc1CNc1nc(Nc2ccc3c(c2)CC(=O)N3)ncc1C(F)(F)F)S(C)(=O)=O + Nc1cccc2c1CN(C1CCC(=O)NC1=O)C2=O [lenalidomide] (first compound 0.08 µM, partner dose 1 µM) | 85.2 | 91.3 | 67.9 | 89.6 | 101 | 86
CN(c1ncccc1CNc1nc(Nc2ccc3c(c2)CC(=O)N3)ncc1C(F)(F)F)S(C)(=O)=O + O=C(O)c1ccc(-c2c[nH]c3ncc(-c4ccccc4)cc23)cc1C1CCCC1 [GSK650394] (first compound 0.08 µM, partner dose 0.16 µM) | 88 | 94.1 | 82.5 | 102 | 106 | 114
CS(=O)(=O)c1ccc(C(=O)Nc2ccc(Cl)c(-c3ccccn3)c2)c(Cl)c1 [vismodegib] + CC(C)CCN1c2nc(Nc3cc(F)c(O)c(F)c3)ncc2N(C)C(=O)C1C [BID1870] (first compound 1 µM, partner dose 0.2 µM) | 87.4 | 105 | 107 | 105 | 92.6 | 97.3
